Measured values: PubChem BioAssay AID463173 (ICCB-Longwood Screening Facility, Harvard Medical School, 2010)
Among all 52,000 compounds or so, about 1,700 (3.3%) were called active. Cut-off read from the data, not from the text of the source: active = survival mostly below about 52% (no sharp cut-off); inactive = mostly above about 56%. Some of the results follow.

Each compound was assayed on Wild type (assay: S. aureus survival, RN4220 and DeltatarO strains – OD600, teichoic acid synthesis inhibitors, primary screen (AID 463173)). Conditions: S. aureus RN4220 wild type/DeltatarO growth, OD600, 18 h, hits give low values, screened at 18.75 µg/mL (by protocol).

| SMILES | survival |
| --- | --- |
| CSc1nnc(Cc2ccccc2)n1-c1ccc(C)cc1 | inactive: 105% |
| N#Cc1cccc(NC(=O)C2CCN(c3cnccn3)CC2)c1 | inactive: 105% |
| O/N=C/c1cn(-c2ccccc2)nc1-c1ccccc1 | inactive: 118% |
| CC(=O)Nc1ccc(NC(=O)c2cc3c(=O)n(Cc4cccnc4)ccc3nc2C)cc1 | inactive: 65% |
| CCOc1ccccc1-c1noc(CCCC(=O)Nc2cccc(C(F)(F)F)c2)n1 | inactive: 67% |
| O=C(CSc1nc(-c2ccc(F)cc2)nc2c1Cc1ccccc1O2)Nc1cccc(C(=O)O)c1 | inactive: 66% |
| CCOC(=O)CCN(c1ccccc1)S(=O)(=O)c1cc(-c2cc(C)no2)ccc1C | inactive: 72% |
| CCc1cc2c(cc3c(=O)n(CC(=O)NC4CCCCC4)nc(CC)n32)s1 | inactive: 85% |
| Cc1cn(C)c(CC(=O)N2CCN(c3cccc(C(F)(F)F)c3)CC2)c1C(=O)O | inactive: 131% |
| Cc1ccc(C(=O)NCC(=O)OCc2cc(=O)n3c(C)csc3n2)cc1 | inactive: 66% |
| CC(=O)N1CCc2c(sc3c2c(=O)n(-c2ccccc2C)c(=O)n3CC(=O)c2ccccc2)C1 | inactive: 128% |
| Cc1cc(C)c2oc(C(=O)Nc3c(C)n(C)n(-c4ccccc4)c3=O)cc(=O)c2c1 | inactive: 86% |
| O=C(NCC(c1cccnc1)N1CCc2ccccc21)c1ccc(F)c(F)c1 (configuration not stated) | inactive: 90% |
| Cc1ccc(C(C)C)c(OCC(=O)NCC2(N3CCOCC3)CCCCC2)c1 | inactive: 83% |
| Cc1cccc(C(=O)Nc2cccc(OCc3cc(=O)n4cc(C)sc4n3)c2)c1 | inactive: 77% |
| CC1Cc2ccccc2N1C(=O)c1nc2ccccc2s1 (configuration not stated) | inactive: 113% |
| Cc1ccc(C)c(NC(=O)Cn2c(=O)n(-c3ccccc3C)c(=O)c3c2c2cc(C)ccc2n3C)c1 | inactive: 138% |
| CC(C)n1cc2c(c1-c1ccccc1Cl)c(=O)n(C)c(=O)n2C | inactive: 89% |
| CC(=O)Nc1c(O)c2ccccc2[nH]c1=O | inactive: 101% |

| SMILES | survival |
| --- | --- |
| Cc1ccc(-n2cc3c(c2-c2ccccc2Br)c(=O)n(C)c(=O)n3C)cc1N | inactive: 104% |
| O=S(=O)(NCCc1ccccc1)c1cccc(S(=O)(=O)N2CCOCC2)c1 | inactive: 101% |
| COc1ccccc1N1CCN(CCCNC(=O)c2nnc(Cc3c(F)cccc3Cl)o2)CC1 | inactive: 85% |
| COc1ccccc1-c1nc2c(c(SCC(=O)Nc3ccccc3F)n1)Cc1c(CO)cnc(C)c1O2 | inactive: 99% |
| Cc1ccnc(N2CCC(C(=O)NCCC(C)C)CC2)n1 | inactive: 103% |
| CCN1CCN(CCCNC(=O)Cn2c(-c3cccs3)cc3ccccc32)CC1 | inactive: 74% |
| Cc1ccc2c(=O)cc(C(=O)N(Cc3ccccc3Cl)C3CCS(=O)(=O)C3)oc2c1 (configuration not stated) | inactive: 108% |
| COc1ccc(-c2cc(-c3ccccc3)c(C#N)c(SCC(O)CS(=O)(=O)Cc3ccccc3)n2)cc1 (configuration not stated) | inactive: 93% |
| Cc1ccc2cc(CN(Cc3cccs3)Cc3nnnn3C(C)(C)C)c3nnnn3c2c1 | inactive: 103% |
| COc1ccc(/C=N/O)cc1COc1ccc(NC(C)=O)cc1 | inactive: 105% |
| COc1ccccc1C(=O)Nc1c(C(=O)N2CCN(c3ccc(F)cc3)CC2)oc2ccccc12 | active: -2% |
| COc1ccc(NC(=O)C2CCCN(C(=O)c3cnn(-c4ccccc4)c3-n3cccc3)C2)cc1 (configuration not stated) | inactive: 75% |
| COc1ccc(-c2noc(C3CCCN(C(=O)c4ccccc4)C3)n2)cc1 (configuration not stated) | inactive: 108% |
| CCOc1ccc(CCNC(=O)CS(=O)(=O)Cc2nc(-c3cccc(Cl)c3)oc2C)cc1 | inactive: 82% |
| COc1ccc(S(=O)(=O)N2CCN(C(c3ccc(OC)c(OC)c3)c3nnnn3C3CCCCC3)CC2)cc1 (configuration not stated) | inactive: 103% |
| CC(O)CNC(=O)C(=O)Nc1c2c(nn1-c1ccc(Cl)cc1)CSC2 (configuration not stated) | inactive: 57% |
| COC(=O)c1ccc(NC(=O)CCc2c(C)nn(-c3ccc(N4CCOCC4)nn3)c2C)cc1 | inactive: 74% |
| O=C(Nc1ccc(F)cc1)c1ccc(Cn2nc(N3CCN(c4ccccc4)CC3)ccc2=O)o1 | inactive: 105% |
| O=C(CSc1nnc(CNc2ccc(F)cc2)o1)N1CCOCC1 | inactive: 111% |

| SMILES | survival |
| --- | --- |
| O=C(CN1CCN(C(=O)N2CCCCC2)CC1)Nc1ccc(F)cc1 | inactive: 124% |
| Cc1cc(C)c(NC(=O)CNC2CC(C)(C)NC(C)(C)C2)c(C)c1 | inactive: 105% |
| CCOC(=O)c1c(C)[nH]c(C)c1S(=O)(=O)N1CCC(C(=O)N2CCN(c3cccc(C)c3C)CC2)CC1 | inactive: 71% |
| COc1ccccc1-c1nc2c(c(SCc3ccc(F)cc3Cl)n1)Cc1c(CO)cnc(C)c1O2 | inactive: 85% |
| COc1ccc(CCNc2nc(-c3ccc(Cl)cc3)cc(C(F)(F)F)n2)cc1OC | active: 18% |
| COc1cccc(-c2cc(C(=O)N3CCN(c4ccccc4OC)CC3)no2)c1 | active: -9% |
| CCc1ccc(NC(=O)c2sc3nc4c(cc3c2N)CN(CC)CC4)cc1 | inactive: 84% |
| COc1ccc(Cl)cc1NC(=O)Cc1coc2c(C)c(C)ccc12 | inactive: 81% |
| Cc1cc2ncn(CCC(=O)NC(C)(C)C)c2cc1C | inactive: 104% |
| O=C(CN(c1ccc2c(c1)OCCO2)S(=O)(=O)c1ccccc1)N1CCCCCC1 | inactive: 114% |
| Cc1cccc(CSc2nc3cc(C(=O)NC4CCCC4)ccc3c(=O)n2Cc2ccccc2)c1 | inactive: 88% |
| Cc1coc2cc3oc(=O)c(CC(=O)N4CCCCC4)c(C)c3cc12 | inactive: 86% |
| Cc1cccc(NC(=O)CN2C(=O)CSC2=O)c1 | inactive: 104% |
| Cc1ccc(CNS(=O)(=O)c2ccc(-c3cnc(C4CC4)o3)cc2)cc1 | inactive: 71% |
| CCc1cccc(NC(=O)Cn2c(=O)c(C(F)(F)F)nc3ccccc32)c1 | inactive: 80% |
| CCC(CC)C(=O)Nc1c(C(=O)N2CCN(c3ccccc3)CC2)oc2ccccc12 | inactive: 110% |
| Cc1cc(C)c2c(=O)cc(C(=O)Nc3nc4ccc(F)cc4s3)oc2c1 | inactive: 81% |
| Cc1cc(=O)oc2cc3c(cc12)OCCN3 | inactive: 110% |
| CCCN(CCC)CC(O)Cn1cc(/C=C/C(=O)c2ccc(OC)cc2)c2ccccc21 (configuration not stated) | active: 1% |
